According to PubChem BioAssay AID1345083 (National Center for Advancing Translational Sciences (NCATS), 2018):
The whole screen tested about 94,000 compounds, of which about 6,200 (6.6%) were called active. Inconclusive results, whose numbers are uncertain, are shown with a selection of clear calls. The call rests on the fitted dose curve; in most records, active means well fitted inhibition curve with a large enough effect; inconclusive means small, poorly fitted or top-dose-only effect; inactive means flat fitted curve, though single readings scatter. Where the call is inconclusive, the potency comes from a doubtful curve fit.

Test: Cytotoxic Profiling in HEK 293 Cell Line of Diverse Libraries Using Quantitative High-Throughput Screening; further: nearly all actives have a fitted effect of over 60% in size
Conditions: HEK 293 viability, ATP luminescence (CellTiter-Glo), 48-72 h; activity change, negative = cytotoxicity: at 115 µM (top of the series) unless noted; series mostly up to 115 µM
Method in brief: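 ATP-coupled CellTiter-Glo luminescence served as viability read-out, recorded 10 min after reagent addition at room temperature. HEK 293 cells, 250 cells/well, had been incubated with pintool-transferred compound for 48 or 72 hr at 37 degree Celsius.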
On the % scale 0 is the no-effect control and ±100 the full control effect; potency means the concentration at half of the fitted maximal effect; tags describe the fitted curve by direction and shape.

SMILES	Potency	activity change, negative = cytotoxicity	outcome
COc1ccc(CN2C(=O)COC[C@H]2C(=O)NCCc2cccc(C)c2)c(OC)c1	inconclusive: 89.1 µM [inhibitor, single point]		
O=C([C@@H]1Cc2nc[nH]c2CN1Cc1ccc(C(F)(F)F)cc1)N1CCOCC1		inactive: -21.1% [at 172 µM]	
COCC1CN(C2CCC2)CC12CCN(C(=O)NCc1ccc(F)cc1)CC2 (stereo not given)	inconclusive: 44.7 µM [inhibitor, partial curve, poor fit]		
CC1=C[C@@H](CNC(=O)COCC(=O)O)[C@H](C(C)C)C[C@H]1Cc1nc2c(C)cccc2[nH]1		inactive: -22% [at 172 µM]	
CCc1cccc(NC(=O)N2CCc3c(c4cc(F)ccc4n3C)C2)c1	inconclusive: 50.1 µM [inhibitor, partial curve, poor fit]		
Cc1ccc(-c2cc(N3CCC(CNC(=O)c4n[nH]c5c4CCCC5)CC3)n[nH]2)cc1	inconclusive: 44.7 µM [inhibitor, partial curve, poor fit]		
CCC(c1cccs1)N1C(=O)[C@H]2CN(S(=O)(=O)c3cccc(Cl)c3)C[C@H]2C1=O (stereo not given in full)		inactive: -15.4%	
Cc1nc(C)c(C(=O)N2CCCCCC2c2nnc(-c3ccccc3)o2)s1 (stereo not given)	inconclusive: 89.1 µM [inhibitor, single point]		
COCCN(C)C(=O)c1cn2cc(-c3ccc(F)cc3)n(CC=C(C)C)c(=O)c2n1		inactive: -0.686%	
COCc1nc2nc(-c3ccccc3)c(-c3ccc(OC)cc3)cc2n1C	inconclusive: 100 µM [inhibitor, partial curve, poor fit]		
COCc1cc(NCC(O)COc2ccc(Cl)c(C)c2)ncn1 (stereo not given)	inconclusive: 39.8 µM [inhibitor, partial curve, poor fit]		
C#CCNC(=O)[C@@H]1Cc2cn(Cc3cccnc3)c3cccc(c23)[C@H](CC(C)C)N1	active: 56.2 µM		
CC(C)NC(=O)C(NC(=O)c1ccc2c(c1)OCO2)C1CCN(C(=O)c2ccc(F)cc2)CC1 (stereo not given)		inactive: -23.2%	
O=C(COc1ccccc1)Nc1ccc([C@@H](O)[C@H]2COCC(=O)N2Cc2ccc(F)cc2)cc1	inconclusive: 79.4 µM [inhibitor, partial curve]		
COCCN1C(=O)[C@@H]2C[C@@H](CN2C(=O)Nc2ccccc2)Oc2ccccc21		inactive: -6.62% [at 172 µM]	
CC(C)CCN1C(=O)CC[C@]2(C(=O)NCc3cccnc3)CCCC[C@@H]12	inconclusive: 100 µM [inhibitor, single point]		
CCn1nccc1C(=O)N1CCCCCCNC(=O)[C@@H]2C[C@@H](c3nc(Cc4ccccc4)no3)C[C@@H]21	inconclusive: 56.2 µM [inhibitor, partial curve, poor fit]		
O=C1CCCN1CCN1CCOc2c(O)cc(-c3csc4ccccc34)cc2C1	active: 44.7 µM		
COc1ncccc1-c1nc2cc(C(=O)NCCCc3ccccc3)ccc2o1	inconclusive: 31.6 µM [inhibitor, partial curve, poor fit]		
O=C1NC2(CCN(C(=O)Cc3ccccc3)C2)Oc2ccccc21 (stereo not given)	inconclusive: 79.4 µM [inhibitor, partial curve]		
COc1ccc2[nH]c(C[C@@H]3C[C@@H](C(C)C)[C@H](CNC(=O)c4cccnc4)C=C3C)nc2n1	active: 56.2 µM		
Cc1ccc(CN2C[C@H]3CN(Cc4cccc(OC(F)(F)F)c4)CCN3C2=O)cc1	active: 63.1 µM		

SMILES	Potency	activity change, negative = cytotoxicity	outcome
CN(C)C[C@@H]1CN(Cc2ccccc2)C[C@H]1NC(=O)c1cnn(C)c1	inconclusive: 70.8 µM [inhibitor, partial curve, poor fit]		
Cc1ccc(NC(=O)Cn2ccn3nc4c(c3c2=O)CCCCC4)cc1C	active: 39.8 µM		
O=C(N[C@H]1CO[C@H]2[C@@H]1OC[C@@H]2Nc1nccc(-c2cccc(F)c2)n1)C1CC1		inactive: -5.79% [at 172 µM]	
O=C(NC[C@H]1Cn2c(-c3ccc4c(c3)OCCO4)cnc2CO1)Nc1ccccc1	active: 100 µM		
Cc1nc(CN2CCOc3cc([S+](=O)([O-])Nc4ccccc4)ccc3C2)cs1	inconclusive: 79.4 µM [inhibitor, partial curve]		
N#CC1CCN(C(=O)c2nc(-c3ccccc3)c3ccccn23)CC1	inconclusive: 89.1 µM [inhibitor, partial curve, poor fit]		
COc1cccc([S+](=O)([O-])N2CCC3(CC2)CC(=O)c2ccc(Cl)cc2O3)c1	inconclusive: 50.1 µM [inhibitor, partial curve, poor fit]		
COCCC1(CO)CCCN(Cc2ccc(C#N)cc2)C1 (stereo not given)			inactive
O=c1n(-c2cccc(Cl)c2)nc2n1CCN([S+](=O)([O-])c1ccccc1)C2	inconclusive: 89.1 µM [inhibitor, single point]		
CC(=O)N1CCC2(CC1)CC(N(Cc1ccc(F)cc1)C1CC1)CCO2 (stereo not given)		inactive: -10.7%	
CCN(CC)Cc1nc(C2(O)CCN(C3CCC3)CC2)cs1	inconclusive: 126 µM [inhibitor, single point]		
N#Cc1cccc(C(=O)Nc2ccc([C@@H](O)[C@H]3COCC(=O)N3Cc3ccc(F)cc3)cc2)c1	inconclusive: 79.4 µM [inhibitor, partial curve, poor fit]		
O=C1NCN(Cc2ccc(Cl)cc2)C12CCN([S+](=O)([O-])c1cccc(C(F)(F)F)c1)CC2	inconclusive: 28.2 µM [inhibitor, full curve]		
Cc1oc2ccn(Cc3cccc(F)c3)c(=O)c2c1C(=O)NCc1ccccc1	inconclusive: 50.1 µM [inhibitor, partial curve, poor fit]		
O=C(O)C[C@@H]1CCN(C(=O)NC2CCCCC2)C[C@@H]1CCN1CCOCC1			inactive [at 172 µM]
COc1ncccc1-c1cc2c(ccn2C(C)C)c(C(=O)NCc2c(C)cc(C)[nH]c2=O)n1	inconclusive: 56.2 µM [inhibitor, partial curve, poor fit]		
Cc1cnc(C(=O)N2CC(Cn3c(C)cnc3-c3ccncc3)C2)cn1			inactive
CCCCNC(=O)c1cccc2c1CCN2S(=O)(=O)c1ccccc1	inconclusive: 50.1 µM [inhibitor, partial curve, poor fit]		
O=C(NCc1ccccc1)C1COC2(CCN(C(=O)c3cccs3)CC2)N1C(=O)c1ccccc1 (stereo not given)	inconclusive: 89.1 µM [inhibitor, single point]		
CN1C[C@@H]2C[C@H]1C(=O)N(Cc1ccccc1)c1ccccc1O2	inconclusive: 112 µM [inhibitor, partial curve]		
O=C(c1ccccc1)N1Cc2ccccc2CC2(CCN(Cc3ccccn3)C2)C1 (stereo not given)		inactive: -64%	
O=C(Cc1cccnc1)N1CCC2(CC1)CC(CCOc1ccc(F)cc1)CCO2 (stereo not given)	inconclusive: 10 µM [inhibitor, full curve, poor fit]		

SMILES	Potency	activity change, negative = cytotoxicity	outcome
COc1ccc(CNC(=O)C2CCCCN2Cc2ccc(-c3cc(F)ccc3OC)cc2)cc1 (stereo not given)	inconclusive: 20 µM [inhibitor, full curve, poor fit]		
O=C(c1ccccc1)N1CCC2(CC1)CC(N(Cc1ccc(F)cc1)C1CC1)CCO2 (stereo not given)	active: 44.7 µM		
CN(C)c1ncc2c(n1)C(C)(C(=O)Nc1ccccc1F)CCC2 (stereo not given)	active: 100 µM		
Cc1cccc(-c2ccccc2C=O)c1		inactive: -9.68% [at 230 µM]	
CC1=NS(=O)(=O)N(C)C=C1C(=O)OCc1noc(-c2cccs2)n1	inconclusive: 50.1 µM [inhibitor, partial curve, poor fit]		
O=C(Cc1cccs1)N1CCCN(c2cc(-c3ccc(Br)cc3)[nH]n2)CC1	active: 44.7 µM		
Cc1noc(-c2ccc(OC3CN(C(=O)Cc4cccs4)C3)cc2)n1	inconclusive: 39.8 µM [inhibitor, partial curve, poor fit]		
Cc1cccc2c1nc1n2[C@@H](CNS(=O)(=O)Cc2ccccc2)COC1	inconclusive: 100 µM [inhibitor, partial curve, poor fit]		
O=C1OCC2(CCN(Cc3ccccc3O)C2)N1Cc1ccccc1 (stereo not given)	inconclusive: 100 µM [inhibitor, partial curve, poor fit]		
Cc1cnc(C(=O)N[C@@H]2CCC[C@@H]2C(=O)NCCc2cccs2)cn1		inactive: -3.62%	
CCn1cc(CN(C)Cc2ccccc2)ccc1=O	inconclusive: 79.4 µM [inhibitor, partial curve, poor fit]		
Cn1ccnc1CN1CCOC[C@H]1c1ncc(-c2cccc(Cl)c2)[nH]1	inconclusive: 100 µM [inhibitor, partial curve, poor fit]		
COc1ccccc1CNC(=O)CC1CCCN(c2cnn(CC3CC3)c(=O)c2)C1 (stereo not given)	inconclusive: 70.8 µM [inhibitor, single point]		
O=C(c1cccc(-n2cnnc2)c1)N(Cc1ccc2[nH]ccc2c1)C1CC1		inactive: -26.6%	
C#CCNC(=O)c1cc(-c2cccc(C(F)(F)F)c2)c2nncn2n1	active: 10 µM		
C=CCN(Cc1ccccc1OC)C(=O)c1cnn(CCC)c1C	inconclusive: 89.1 µM [inhibitor, single point]		
CC(=O)N1Cc2ccccc2CC2(CCN(CC3CCCCC3)CC2)C1		inactive: -13.5%	
O=C(NC1CCN(c2cc(-c3cccs3)[nH]n2)CC1)c1cccc(Cl)c1	active: 44.7 µM		
CC(=O)N1CCC(Cc2noc(-c3ccccc3)n2)C1 (stereo not given)	inconclusive: 70.8 µM [inhibitor, partial curve, poor fit]		
COCC1CN(Cc2cc(F)cc(Br)c2)CC12CCNCC2 (stereo not given)	inconclusive: 79.4 µM [inhibitor, partial curve, poor fit]		
CCn1cc(-c2ccncc2)cc1C(=O)NCc1ccc(Cl)cc1	inconclusive: 79.4 µM [inhibitor, partial curve, poor fit]		
